The other results are listed elsewhere or left out.
Biological target: T1, OsWOX13 (Oryza sativa, UniProt Q5QMM3 1-267)
T1 sequence: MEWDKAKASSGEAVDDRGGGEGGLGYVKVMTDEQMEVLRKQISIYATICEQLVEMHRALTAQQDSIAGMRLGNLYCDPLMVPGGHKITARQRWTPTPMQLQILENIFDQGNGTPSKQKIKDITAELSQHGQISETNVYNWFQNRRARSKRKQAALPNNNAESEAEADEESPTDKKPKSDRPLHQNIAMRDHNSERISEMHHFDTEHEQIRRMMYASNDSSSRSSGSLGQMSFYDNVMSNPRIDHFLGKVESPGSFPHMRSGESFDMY
Assay: protein-binding microarray (RPBM); PBS, 2% BSA, 51.3 ng/ul salmon testes DNA, 50 uM zinc acetate, 200 nM TF, 25 C, 1 h; high values mean tight binding
Details: protein: recombinant; tags: N-terminal polyhistidine and DsRed monomer fusion (pET32a); label: CyDye5-dUTP incorporated in the synthesized complementary strand; 3' TTTTT single-stranded linker to array surface; dsDNA, one strand shown
Method in brief: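 The binding signal for each feature is its fluorescence intensity in arbitrary units. An Axon 4000B scanner was used to read a custom Agilent array that had been made double-stranded with Cy5-dUTP primer extension, blocked with 2% BSA, incubated at 25 °C for 1 h with 200 nM protein in PBS, 2% BSA, salmon testes DNA and 50 µM zinc acetate, and washed. The protein was an N-terminal polyhistidine–DsRed transcription factor fusion from E. coli BL21-CodonPlus, purified on Ni–NTA.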

Sequence	binding signal
GATGAAATAGACAGAAGAGTGTGGCAGTCAAGGAGCCCTTCGGAGTCACCTAGTGCAG	12400 fluorescence intensity (a.u.)
CCGTGATTAGCCATAAGTGCTACAGTAACCCACATGTGCTCGGAGTCACCTAGTGCAG	57900 fluorescence intensity (a.u.)
GACATCAGATTGAGTATCACTGAGTCTACCAATTGAAGGTCGGAGTCACCTAGTGCAG	6080 fluorescence intensity (a.u.)
AAAATGAAAATAATATATGATTTAAAATATATAAGTCATCCGGAGTCACCTAGTGCAG	3850 fluorescence intensity (a.u.)
TCCATGATTGAGACAATCCTAAGGAATTTCAAAAGATTTGCGGAGTCACCTAGTGCAG	46000 fluorescence intensity (a.u.)
AGCTTAAATAAAGTAATAATTAATTGGAACACTCCCAAAACGGAGTCACCTAGTGCAG	15500 fluorescence intensity (a.u.)
TATATATATATATATATATATATATTGAAACATAGATATGCGGAGTCACCTAGTGCAG	20300 fluorescence intensity (a.u.)
TTACCATTTAATTAAATTAAGAGGGATACATATCCATTATCGGAGTCACCTAGTGCAG	12900 fluorescence intensity (a.u.)
GATTGCTCACTGATTGGAAAATTTGTATCTACCAGTATCCCGGAGTCACCTAGTGCAG	36000 fluorescence intensity (a.u.)
TTTTAAAAGGTTGATTGAATCTTTTGCTAAGCATCAAATACGGAGTCACCTAGTGCAG	9890 fluorescence intensity (a.u.)
GCCGACAAATCACGCCATAGACCAACCCAACCCGTGCCGCCGGAGTCACCTAGTGCAG	4930 fluorescence intensity (a.u.)
TAAAGGTTATATTGATGATTGAACGCAACATATTGAGGAACGGAGTCACCTAGTGCAG	8790 fluorescence intensity (a.u.)
TTAACTGAATTATATGACTCCATATGCAGCAAGTAGTGCACGGAGTCACCTAGTGCAG	9570 fluorescence intensity (a.u.)
CTGCTAAATTGCAACCAATAGGCCGTATACGTGCCTCGGCCGGAGTCACCTAGTGCAG	9600 fluorescence intensity (a.u.)
ATAATTTACATTGTGAAACGGAGGAAGTAAATTACATCCTCGGAGTCACCTAGTGCAG	7640 fluorescence intensity (a.u.)
TGTGCCCGAGTAATTAATTAATAACCTACTCTCTCCGGTTCGGAGTCACCTAGTGCAG	12000 fluorescence intensity (a.u.)
ATTGGCTATTAGATTGGCTATAGATGAATTAGAGTTAGTACGGAGTCACCTAGTGCAG	15400 fluorescence intensity (a.u.)
AACAAATTTAGAAGTTGATGGCCACGGACAAATCGAGAGACGGAGTCACCTAGTGCAG	5040 fluorescence intensity (a.u.)
ATGGCTAATCATAGACTAATTAGGCTCAAAAGTTTCGTCTCGGAGTCACCTAGTGCAG	29000 fluorescence intensity (a.u.)
ATGATTTGCTTCAGTGATGCTATATTAATCAGCCGCTAATCGGAGTCACCTAGTGCAG	22800 fluorescence intensity (a.u.)
CTTAGATTAGACTTTTGCACAATGTAAATTACAAAACTTCCGGAGTCACCTAGTGCAG	15000 fluorescence intensity (a.u.)

Sequence	binding signal
TTCATCTGACATGATTGCCTCTTGTCTTCATCCCTCCCAACGGAGTCACCTAGTGCAG	23600 fluorescence intensity (a.u.)
ATTTAATTTAGAATGTGTGACAGTGTTTTCAACATGTAGACGGAGTCACCTAGTGCAG	26000 fluorescence intensity (a.u.)
TAAGTATCCTTGATTGATTGCCTGATCGATCAGCTGCTAGCGGAGTCACCTAGTGCAG	55000 fluorescence intensity (a.u.)
TGAAGATTGATGAGATGGACGGTACCATTGCCGATGCTGTCGGAGTCACCTAGTGCAG	56700 fluorescence intensity (a.u.)
CTTGACTGGCTTCGTTAATGGACTCGCCACCTCACCTACTCGGAGTCACCTAGTGCAG	45000 fluorescence intensity (a.u.)
TGGAGTGATTTATCATATATTAATTTATTTTATTCATGTTCGGAGTCACCTAGTGCAG	18100 fluorescence intensity (a.u.)
TTCTAAATTAATATATTTCATAATCATGGTTCTTTTAGCACGGAGTCACCTAGTGCAG	24800 fluorescence intensity (a.u.)
CCTAATTGCACCATGATTTGATAATGTTGTGCTACAGTAACGGAGTCACCTAGTGCAG	42600 fluorescence intensity (a.u.)
ATCAATCTAATCATGACTTTGAGTCATTTCCGATCTAACTCGGAGTCACCTAGTGCAG	11800 fluorescence intensity (a.u.)
ACATAGACTGGGAGATGAATACACTACGGTGCCCTCTCATCGGAGTCACCTAGTGCAG	6990 fluorescence intensity (a.u.)
TAATCAATTATCACATGCTGAGATTTCGCAAATCACGCTTCGGAGTCACCTAGTGCAG	18700 fluorescence intensity (a.u.)
CCTTGGATCGGCTGATTGGCCGATCGAACTAGAGAGAGATCGGAGTCACCTAGTGCAG	12100 fluorescence intensity (a.u.)
AGTAGTTAATTGGATTGGGCCGGGCCCACCGGCCCACGGCCGGAGTCACCTAGTGCAG	30300 fluorescence intensity (a.u.)
GCCCATATTGATGTATTCATTACCAGAAACTGTGTATCGGCGGAGTCACCTAGTGCAG	3360 fluorescence intensity (a.u.)
ACCTCCTGACTCTTGCCAATCATCTTATAGCTGTTTAGATCGGAGTCACCTAGTGCAG	11100 fluorescence intensity (a.u.)
ATTTTAATTTGTGGGCAGAAATAAACTATATAAGTACATACGGAGTCACCTAGTGCAG	18000 fluorescence intensity (a.u.)
TATGAGTGATAAATAATTAATTACCACGTCTTAAAAGTGGCGGAGTCACCTAGTGCAG	28600 fluorescence intensity (a.u.)
TGATTAATTGAGAAGAGAAAGTTAATAAAGAATTTAAATGCGGAGTCACCTAGTGCAG	32700 fluorescence intensity (a.u.)
GCACGGATTTGATTTGATGATGTTCATGCTTAGAAGATGGCGGAGTCACCTAGTGCAG	20500 fluorescence intensity (a.u.)
CTCATAACATAAATAACATGTTATGAAACTTTGATCAAGTCGGAGTCACCTAGTGCAG	4160 fluorescence intensity (a.u.)
GATGATTGAATTCACCAATGTCTCGCTCAACGTGTTACGTCGGAGTCACCTAGTGCAG	40500 fluorescence intensity (a.u.)

Sequence	binding signal
TATTAATTAATTACTAAATCAATGCATTTAGGGACTTCTTCGGAGTCACCTAGTGCAG	25500 fluorescence intensity (a.u.)
ATTAATTTCTGATCCCACCTGTCATACACATATTGTTTCTCGGAGTCACCTAGTGCAG	10800 fluorescence intensity (a.u.)
GTATGACAGGTAGGACTAGATATTAATAGTGTAATAAGTACGGAGTCACCTAGTGCAG	4520 fluorescence intensity (a.u.)
TAGTTTGATAATTGACTTTACAAACAGATCAATTGTCTGTCGGAGTCACCTAGTGCAG	26100 fluorescence intensity (a.u.)
ATACTAATTACTTAATTAGTGACCAGTGATCACTTGTGTGCGGAGTCACCTAGTGCAG	45800 fluorescence intensity (a.u.)
TTGAATTTGATTGTGTGCACATCTAGCTAATGGCAAACAACGGAGTCACCTAGTGCAG	16600 fluorescence intensity (a.u.)
GTAATTGGGAGGGAATTTCTCCTTTACTTCGCCTAAACAACGGAGTCACCTAGTGCAG	14100 fluorescence intensity (a.u.)
ATTTCAGAATTTACATTGATTTTGTTTGAAGAGTGCAATTCGGAGTCACCTAGTGCAG	4920 fluorescence intensity (a.u.)
TGAGGTGCAATCATTCGAACAATCAAACATGAAGGCTCTACGGAGTCACCTAGTGCAG	4530 fluorescence intensity (a.u.)
CCCGACGTGAATATGTGATTATCATATGTGCGATGTACACCGGAGTCACCTAGTGCAG	3430 fluorescence intensity (a.u.)
ACTGATTTTAAGCCATGCTTGCTTCGAACTGAATCCGAACCGGAGTCACCTAGTGCAG	6310 fluorescence intensity (a.u.)
GTTATTGACTGACTGGCATTGAATATGAAGCATCTAGCTGCGGAGTCACCTAGTGCAG	39700 fluorescence intensity (a.u.)
TACTCCAATCAACCCAATCGTCCAAAACACGTCGCAAGTCCGGAGTCACCTAGTGCAG	13500 fluorescence intensity (a.u.)
CAAACTTTTAATTTCAATTTCAAATTATTCAAATAGTGTCCGGAGTCACCTAGTGCAG	19800 fluorescence intensity (a.u.)
CACTTAATCTATAATTAGCGTATGTTTACTGTAGCATCATCGGAGTCACCTAGTGCAG	25900 fluorescence intensity (a.u.)
AATAAATTATCCCGGAAGAAAACAGTAAAATTCACATTGACGGAGTCACCTAGTGCAG	5720 fluorescence intensity (a.u.)
ATGAATTTCAATTACATGGGCATGTAAATAATGCAGGAATCGGAGTCACCTAGTGCAG	14900 fluorescence intensity (a.u.)
GCGGAGATGAAGTTGATGGAATGGATGAAACCCTCTGCCCCGGAGTCACCTAGTGCAG	3190 fluorescence intensity (a.u.)
TAGATGAGTTAAATATAATTATTTGTATGTTTTAATAAATCGGAGTCACCTAGTGCAG	3630 fluorescence intensity (a.u.)
TTCAAAACTTCAATAATTATGAGACTGAAACATTACTCCACGGAGTCACCTAGTGCAG	5760 fluorescence intensity (a.u.)
TGGAGAACAGATGATTGATGTCTTAGGGCCGGAGAAACGCCGGAGTCACCTAGTGCAG	31400 fluorescence intensity (a.u.)

Sequence	binding signal
TTTAATAATTATTCTATAGTCTTTGTGGTCCTTAAGGTTGCGGAGTCACCTAGTGCAG	20700 fluorescence intensity (a.u.)
CGGAATTGTTTCACTCGTTTAAATCGAGTGTTGTTTCACCCGGAGTCACCTAGTGCAG	3610 fluorescence intensity (a.u.)
TAATGCCTAATTGATTAGGAATACAGAAGAATAGAGATTACGGAGTCACCTAGTGCAG	27100 fluorescence intensity (a.u.)
AGGCACCAATCAAGTACACACTTCTGACAAACCTGGTTAACGGAGTCACCTAGTGCAG	8390 fluorescence intensity (a.u.)
TTGACAGTTAATCCTAGGTCTATCTATCGCACTGAGTTTGCGGAGTCACCTAGTGCAG	12400 fluorescence intensity (a.u.)
GTGAATTAACAGGGGTACTAAGAGAATCTTTTCACCATAGCGGAGTCACCTAGTGCAG	3860 fluorescence intensity (a.u.)
TCGATATCTCGATTGATGGTTTGATGTTTGTTTAATTCTGCGGAGTCACCTAGTGCAG	4980 fluorescence intensity (a.u.)
TGGGATAATTAACTCGTAATGATCCCCAAATGCGTGCGTACGGAGTCACCTAGTGCAG	28300 fluorescence intensity (a.u.)
GATATGATTCTTAATTTTATAGCTTCATCGATACGTGTTTCGGAGTCACCTAGTGCAG	5370 fluorescence intensity (a.u.)
AAACAAATTACATAATTCGCCTGTAAACTGCGAGACGAATCGGAGTCACCTAGTGCAG	16200 fluorescence intensity (a.u.)
GCGTCGTCACTGTGATTATATTACGAGCTGGCCACTTAATCGGAGTCACCTAGTGCAG	6720 fluorescence intensity (a.u.)
TCTCTGATTTCTCTCAAATGAATTACTGTTACCAGTTGGTCGGAGTCACCTAGTGCAG	11900 fluorescence intensity (a.u.)
TTTAAGTGAAAATCAACGGTGAGATTAGATAGTGCCATGTCGGAGTCACCTAGTGCAG	5880 fluorescence intensity (a.u.)
GAGAAATCATAACCCTGTGATTTCACGCGGCCGCCGTCGGCGGAGTCACCTAGTGCAG	6700 fluorescence intensity (a.u.)
CAGATCAATAAATTGACAGACACAACATAGATCAACGATACGGAGTCACCTAGTGCAG	18300 fluorescence intensity (a.u.)
TTATTAATTTTAAGATACGGGTATAACATTTGGGATGTTTCGGAGTCACCTAGTGCAG	8030 fluorescence intensity (a.u.)
ACACCTTAATTTTCTGGCCGTCGTGATCTGTATCGCTCTTCGGAGTCACCTAGTGCAG	6650 fluorescence intensity (a.u.)
TTAAAATTGATACAGAGCAACACAAAGAGCTAAACTAGGGCGGAGTCACCTAGTGCAG	14300 fluorescence intensity (a.u.)
CGATGATTGCTCTAGATTATATGCAACTCTCCGAATGATGCGGAGTCACCTAGTGCAG	43400 fluorescence intensity (a.u.)
AAATTAATTAATCGGCAAGCAACAGATCGATTCTGCGCACCGGAGTCACCTAGTGCAG	24300 fluorescence intensity (a.u.)
ATATAGATAGATAGAAGAAGGAAACAACTCAACCGCAGCACGGAGTCACCTAGTGCAG	11100 fluorescence intensity (a.u.)
